Positions count from the first letter of the chain named. Some of the results follow.
B1: CAUUCCU (DNA:RNA)
RNA: GGGAGACCGGAAUUCAGAUUGUCCCAUUCCUUUAAAUCCCGUCGUAGCCACCA
DNA 1: CAATCTGAATTCCGGTCTCCC
DNA 2: TGGTGGCTACGACGGGATT
B2: GCGAUUC (DNA:RNA)
RNA: GGGAGACCGGAAUUCAGAUUGUCCGCGAUUCUUAAAUCCCGUCGUAGCCACCA
DNA 1: CAATCTGAATTCCGGTCTCCC
DNA 2: TGGTGGCTACGACGGGATT
B3: UCACCGG (DNA:RNA)
RNA: B1 RNA with C25U, A26C, U27A, U28C, C30G, U31G
DNA 1: CAATCTGAATTCCGGTCTCCC
DNA 2: TGGTGGCTACGACGGGATT
B4: GCGCGAG (DNA:RNA)
RNA: B2 RNA with A28C, U29G, U30A, C31G
DNA 1: CAATCTGAATTCCGGTCTCCC
DNA 2: TGGTGGCTACGACGGGATT
B5: AAGUGGU (DNA:RNA)
RNA: B1 RNA with C25A, U27G, C29G, C30G
DNA 1: CAATCTGAATTCCGGTCTCCC
DNA 2: TGGTGGCTACGACGGGATT
B6: AACGUAA (DNA:RNA)
RNA: B1 RNA with C25A, U27C, U28G, C29U, C30A, U31A
DNA 1: CAATCTGAATTCCGGTCTCCC
DNA 2: TGGTGGCTACGACGGGATT
B7: AAAACGA (DNA:RNA)
RNA: B1 RNA with C25A, U27A, U28A, C30G, U31A
DNA 1: CAATCTGAATTCCGGTCTCCC
DNA 2: TGGTGGCTACGACGGGATT
B8: CUGGCGG (DNA:RNA)
RNA: B1 RNA with A26U, U27G, U28G, C30G, U31G
DNA 1: CAATCTGAATTCCGGTCTCCC
DNA 2: TGGTGGCTACGACGGGATT
B9: UUCGACG (DNA:RNA)
RNA: B1 RNA with C25U, A26U, U27C, U28G, C29A, U31G
DNA 1: CAATCTGAATTCCGGTCTCCC
DNA 2: TGGTGGCTACGACGGGATT

What follows are binders tested against T1, RBFOX1 RRM RbFoxmut (Fox-RRM*) (Homo sapiens, UniProt Q9NWB1 109-208, R118D;E147R;N151S;E152T) (assay: EMSA; HiTS-Eq, 1 nM pool, 10 min; buffer printed only for the single-RNA assays: 10 mM Tris pH 7.5, 150 mM NaCl, 3.4 mM EDTA, 0.001% NP-40, 30 C). Details: tags: His6 N-terminal (pET28a); label: 5' 32P.
T1 sequence: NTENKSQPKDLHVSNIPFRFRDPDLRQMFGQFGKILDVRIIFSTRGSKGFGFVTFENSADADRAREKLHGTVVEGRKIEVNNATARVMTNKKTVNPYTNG
In short: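 Purified RbFox RRM (wild type or mutant) was equilibrated for 10 min in 50 µL with 1 nM of a 5′-radiolabelled pool of RNA with 7 randomized nucleotides, its flanks annealed to DNA oligonucleotides, across increasing protein concentrations. Free RNA was separated by 8% native PAGE, excised, reverse-transcribed, PCR-barcoded and sequenced on an Illumina HiSeq 2500. Relative association constants came from read-count changes of each variant against the control reaction, normalised to the cognate motif.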

Binder	binding signal
B1	0.0964 KA relative to UGCAUGU
B2	0.0849 KA relative to UGCAUGU
B3	0.0678 KA relative to UGCAUGU
B4	0.127 KA relative to UGCAUGU
B5	0.109 KA relative to UGCAUGU
B6	0.096 KA relative to UGCAUGU
B7	0.0531 KA relative to UGCAUGU
B8	0.0885 KA relative to UGCAUGU
B9	0.0706 KA relative to UGCAUGU

Reference: publication PMC9911399, “Two distinct binding modes provide the RNA-binding protein RbFox with extraordinary sequence specificity”
